In all, about 33,000 sequences were measured (“E-score (-0.5 to 0.5)”: median about -0.021, highest 2% from about 0.32 on). The list shows a part of the results.
biological target: T1, Zap1 (UniProt P47043); assay: PBM E-score (8-mer binding enrichment) (E-score (-0.5 to 0.5)); higher = stronger / more preferred TF binding; most listed sequences are background and not binding sites; conditions: protein concentration: 200 nM; construct: GST-full length
T1 sequence: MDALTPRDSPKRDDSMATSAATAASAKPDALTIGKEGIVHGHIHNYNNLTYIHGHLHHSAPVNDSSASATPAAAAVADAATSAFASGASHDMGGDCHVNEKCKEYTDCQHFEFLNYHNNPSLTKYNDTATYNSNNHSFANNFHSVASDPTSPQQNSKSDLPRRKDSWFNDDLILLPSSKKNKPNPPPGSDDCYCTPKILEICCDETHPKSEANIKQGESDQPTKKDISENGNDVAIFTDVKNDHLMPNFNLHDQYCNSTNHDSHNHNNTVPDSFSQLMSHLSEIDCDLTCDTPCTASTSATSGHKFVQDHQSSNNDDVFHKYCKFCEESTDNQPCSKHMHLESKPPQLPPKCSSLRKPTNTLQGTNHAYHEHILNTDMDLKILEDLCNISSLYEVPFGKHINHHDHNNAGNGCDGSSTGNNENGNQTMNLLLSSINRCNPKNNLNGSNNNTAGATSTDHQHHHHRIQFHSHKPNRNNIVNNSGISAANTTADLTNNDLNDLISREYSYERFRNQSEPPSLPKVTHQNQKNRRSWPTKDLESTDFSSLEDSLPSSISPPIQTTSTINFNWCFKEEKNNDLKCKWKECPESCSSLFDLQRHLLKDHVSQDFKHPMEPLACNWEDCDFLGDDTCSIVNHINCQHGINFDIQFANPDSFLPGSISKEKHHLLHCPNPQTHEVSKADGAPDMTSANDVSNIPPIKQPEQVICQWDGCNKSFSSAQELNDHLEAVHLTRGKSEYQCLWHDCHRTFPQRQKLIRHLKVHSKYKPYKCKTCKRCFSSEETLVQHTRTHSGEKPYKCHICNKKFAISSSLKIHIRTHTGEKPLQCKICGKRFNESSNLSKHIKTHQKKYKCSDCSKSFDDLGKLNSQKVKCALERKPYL
Outline: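 Detection of bound protein used fluorescent anti-GST, with scans normalised by masliner. The proteins were GST-tagged yeast transcription factors applied at about 100-200 nM to universal all-10-mer Agilent arrays made double-stranded by primer extension. Each ungapped eight-base word, pooled with its reverse complement, was scored with an E-score from the Universal PBM Analysis Suite.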

Row | Sequence | PBM E-score
1 | ACGGGTAG | 0.255
2 | CGACAGGC | -0.313
3 | ACCTCCAG | 0.0626
4 | AAGCTATC | -0.13
5 | AAAAGCGT | -0.06
6 | CAGGAACG | -0.141
7 | ATGTACGA | 0.0667
8 | GTAATTCA | 0.171
9 | GCCATGAC | -0.0112
10 | CTGAGAGA | -0.102
11 | ATCAGTGC | -0.107
12 | GTAACCGA | 0.346
13 | ATGAAGTG | -0.156
14 | CCACAGCA | -0.161
15 | ACCGCAAT | 0.319
16 | CATCTTGC | -0.0824
17 | AACACGCG | 0.126
18 | AGCGTAAA | -0.0342
19 | CAAAAATC | -0.0217
20 | ATGCTAAA | 0.105
21 | GGTGCGTA | 0.0446
22 | AAAATTTG | 0.0854
23 | AGCGCTCC | -0.271
24 | GGAGCACA | -0.127
25 | ATGGTGTA | 0.104

Row | Sequence | PBM E-score
26 | GCGGATCA | -0.0752
27 | TCTCACCA | -0.0503
28 | CATATGCC | -0.052
29 | ATTTGCCA | -0.00495
30 | AGATAACT | -0.118
31 | CGATGGGA | -0.201
32 | GTGTCACA | 0.0541
33 | CCAGGGAA | -0.139
34 | ACGTTACC | 0.172
35 | TGGGTTAA | 0.359
36 | ACACCTGG | -0.163
37 | GAAGGTCC | -0.144
38 | GGTCAATA | 0.148
39 | ATGGTTCG | 0.0884
40 | GCAGCAGC | -0.173
41 | ACGACGCG | 0.0934
42 | ACGTACAG | -0.237
43 | CACTGTGG | -0.176
44 | TAGACTAA | -0.0299
45 | AGGAGATG | -0.282
46 | GCACATCA | -0.178
47 | CGTTGATA | 0.0582
48 | GGGCCAAA | -0.0875
49 | ATTCAATC | 0.014
50 | GTTCCAGA | 0.1

Row | Sequence | PBM E-score
51 | GAGTTGGC | -0.232
52 | AGTAAGGC | -0.254
53 | CCGGAAGA | 0.0742
54 | AACCGACG | 0.0424
55 | AAACCATC | 0.128
56 | CCCCAATA | 0.132
57 | AGTTCTAA | -0.0583
58 | CATACGCC | -0.299
59 | ACCACGCA | 0.135
60 | AGTGACTC | 0.0217
61 | CTAGTGTC | 0.0384
62 | GTTCTCGA | 0.0158
63 | AGGACGTG | -0.264
64 | AATTAATT | 0.0914
65 | ATCCGGGC | -0.0217
66 | AATCCCCG | -0.0999
67 | GTTCGATA | 0.0733
68 | TAAGTCGA | -0.0631
69 | AGGCCCCC | -0.281
70 | ACGTGAGA | 0.0217
71 | CTGGATAA | 0.0167
72 | GCTTTTTA | 0.153
73 | ACTTATGA | 0.0246
74 | AGAGAGTG | -0.212
75 | ACCTTGGA | 0.195

Row | Sequence | PBM E-score
76 | AAAGGTCC | 0.245
77 | AGCGACTA | 0.0332
78 | CTCGCGCC | -0.018
79 | CAAGGCTA | -0.0665
80 | ACATCCTA | -0.167
81 | ACTCTTTA | -0.0775
82 | AATGCGTA | -0.0664
83 | GTGCGTGA | 0.0239
84 | AGTATAGG | 0.0506
85 | CTAATAAC | 0.223
86 | CCAGCGAC | -0.082
87 | AAAAGACC | 0.17
88 | CATGCAAC | 0.0184
89 | CTTGCATC | -0.203
90 | ATGCCGCC | -0.293
91 | CTTGCGAA | 0.139
92 | ACTGCGTC | -0.214
93 | ACTCGTTC | 0.0381
94 | ATCGTCGG | -0.0412
95 | GAACGCAA | 0.113
96 | ACGGAAAT | 0.123
97 | AGGTTAGG | 0.348
98 | AACAAAAA | 0.297
99 | ACCCAGGT | 0.239
100 | TAGCACCA | 0.0858

Row | Sequence | PBM E-score
101 | GCGAGTCA | 0.023
102 | CGCAACTC | 0.151
103 | AAGGGCCC | -0.00803
104 | ATCACGCG | 0.0944
105 | ATACTAGG | 0.0465
106 | AAAAGGTG | 0.173
107 | GGGCAACA | -0.206
108 | CACAAGCA | 0.0117
109 | AACTGAGA | -0.0795
110 | ATTCAAGG | 0.182
111 | GATGATAA | 0.134
112 | CCCAATCG | -0.0247
113 | ACCAGCGT | -0.0993
114 | ATCATGGG | 0.147
115 | AGCGTACA | -0.109
116 | AGGCCCGG | -0.136
117 | CCCCCGAG | -0.222
118 | AGAAGTTA | 0.0556
119 | CTCAAATA | -0.174
120 | GGTAAGAC | 0.102
121 | CTTATACA | 0.0505
122 | AGCTGGAT | -0.0594
123 | CTGATTTA | 0.0125
124 | ACAAGGCC | -0.152
125 | ACCAATCC | 0.0671

Row | Sequence | PBM E-score
126 | CCTTGAAC | 0.0795
127 | GACACTGA | -0.0233
128 | AAACTGGT | 0.205
129 | GTAGCACA | 0.017
130 | GAGTGTAC | -0.135
131 | AGTGACGA | 0.151
132 | AGAGACAT | -0.104
133 | CACGTCCG | -0.161
134 | AGAGTTTA | 0.104
135 | GGGGTTAA | 0.403
136 | CGGACGGA | -0.276
137 | AACCGGAT | 0.198
138 | ATGTTCCG | -0.28
139 | GATCATCC | -0.105
140 | CCCGCACC | -0.0206
141 | ACAATTAG | -0.026
142 | AAAACGAG | 0.0264
143 | CGTCAGTA | -0.119
144 | GAGGGAGC | -0.235
145 | CCGGCGAG | -0.281
146 | AGGTTTAA | 0.192
147 | TGATATAA | 0.0544
148 | ATCCCCTG | -0.214
149 | ACTACAGA | 0.177
150 | ACTGCTTG | -0.247

Row | Sequence | PBM E-score
151 | GAACACAA | 0.0187
152 | ATCGCGCA | -0.0638
153 | AATATTAG | 0.176
154 | GCCTCTCC | -0.188
155 | GTCATCAC | 0.109
156 | ATGCTGAA | -0.0737
157 | AAGCCATC | -0.0723
158 | ATTAGTTA | 0.244
159 | CAGCCGAC | -0.249
160 | TCCTTAGA | -0.0598
161 | AGACCTGA | 0.00106
162 | CACGTCCA | -0.225
163 | ATTCAGTG | -0.119
164 | AGACTATC | -0.198
165 | AGGCGTGC | -0.178
166 | TAGGGAGA | -0.107
167 | ACAGTAGG | -0.209
168 | AGCGCACG | -0.228
169 | AACACAGG | -0.201
170 | AGAGGATG | -0.0538
171 | CTAATGCC | -0.122
172 | GGTATCGA | 0.243
